# In the supplement of paper PMC8728848:
# This is one part of the list.
# Assays:
# Experiment in all cases: glycan array binding signal (z-score within array); higher = stronger binding
# Conditions in all cases: glycan notation: IUPAC condensed, linker removed
# [1] = target: GlcNAc(b1-6)Gal(b1-4)GlcNAc
# Summary of the method: (§1)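 Glycan array binding is given as a within-array Z-score, which can be read as non-binding when negative. The arrays, 3228 of them, came from the Consortium for Functional Glycomics database and were retained only where the protein sequence was available. Z-scores were averaged across arrays of the same protein sequence at different concentrations or buffers and across linkers.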
# GlcNAc(b1-6)GalNAc = target: GlcNAc(b1-6)GalNAc
# Summary of the method: as §1
# GlcNAc3Prop(b1-4)GlcNAc = target: GlcNAc3Prop(b1-4)GlcNAc
# Summary of the method: as §1
# [2] = target: GlcNAc6S(b1-3)Gal(b1-4)GlcNAc
# Summary of the method: as §1
# Kdn(a2-3)Gal(b1-3)GalNAc = target: Kdn(a2-3)Gal(b1-3)GalNAc
# Summary of the method: as §1
# Kdn(a2-3)Gal(b1-3)GlcNAc = target: Kdn(a2-3)Gal(b1-3)GlcNAc
# Summary of the method: as §1
# Kdn(a2-3)Gal(b1-4)Glc = target: Kdn(a2-3)Gal(b1-4)Glc
# Summary of the method: as §1
# Kdn(a2-3)Gal(b1-4)GlcNAc = target: Kdn(a2-3)Gal(b1-4)GlcNAc
# Summary of the method: as §1
# [3] = target: Kdn(a2-3)Gal(b1-4)[Fuc(a1-3)]GlcNAc
# Summary of the method: as §1
# Kdn(a2-6)Gal(b1-4)GlcNAc = target: Kdn(a2-6)Gal(b1-4)GlcNAc
# Summary of the method: as §1
# [4] = target: Man(a1-2)Man(a1-2)Man(a1-3)Man
# Summary of the method: as §1
# [5] = target: Man(a1-2)Man(a1-2)Man(a1-6)[Man(a1-3)]Man
# Summary of the method: as §1
# Man(a1-2)Man(a1-3)Man = target: Man(a1-2)Man(a1-3)Man
# Summary of the method: as §1
# [6] = target: Man(a1-2)Man(a1-3)[Man(a1-2)Man(a1-6)]Man
# Summary of the method: as §1
# [7] = target: Man(a1-2)Man(a1-3)[Man(a1-2)Man(a1-6)]Man(a1-6)[Man(a1-2)Man(a1-2)Man(a1-3)]Man
# Summary of the method: as §1
# [8] = target: Man(a1-2)Man(a1-3)[Man(a1-2)Man(a1-6)]Man(a1-6)[Man(a1-2)Man(a1-2)Man(a1-3)]Man(b1-4)GlcNAc(b1-4)GlcNAc
# Summary of the method: as §1
# [9] = target: Man(a1-2)Man(a1-3)[Man(a1-6)]Man(a1-6)[Man(a1-2)Man(a1-3)]Man(b1-4)GlcNAc(b1-4)GlcNAc
# Summary of the method: as §1
# [10] = target: Man(a1-2)Man(a1-6)[Man(a1-3)]Man(a1-6)[Man(a1-2)Man(a1-2)Man(a1-3)]Man
# Summary of the method: as §1
# [11] = target: Man(a1-2)Man(a1-6)[Man(a1-3)]Man(a1-6)[Man(a1-2)Man(a1-2)Man(a1-3)]Man(b1-4)GlcNAc(b1-4)GlcNAc
# Summary of the method: as §1
# Man(a1-3)[Man(a1-6)]Man = target: Man(a1-3)[Man(a1-6)]Man
# Summary of the method: as §1
# [12] = target: Man(a1-3)[Man(a1-6)]Man(a1-6)[Man(a1-2)Man(a1-3)]Man(b1-4)GlcNAc(b1-4)GlcNAc
# Summary of the method: as §1
# [13] = target: Man(a1-3)[Man(a1-6)]Man(a1-6)[Man(a1-3)]Man
# Summary of the method: as §1
# [14] = target: Man(a1-3)[Man(a1-6)]Man(a1-6)[Man(a1-3)]Man(b1-4)GlcNAc(b1-4)GlcNAc
# Summary of the method: as §1
# [15] = target: Man(a1-3)[Man(a1-6)]Man(b1-4)GlcNAc(b1-4)GlcNAc
# Summary of the method: as §1
# Man(a1-6)Man = target: Man(a1-6)Man
# Summary of the method: as §1
# Man(b1-4)GlcNAc = target: Man(b1-4)GlcNAc
# Summary of the method: as §1
# Neu5Ac(a2-3)Gal = target: Neu5Ac(a2-3)Gal
# Summary of the method: as §1
# [16] = target: Neu5Ac(a2-3)Gal(b1-3)GalNAc
# Summary of the method: as §1
# [17] = target: Neu5Ac(a2-3)Gal(b1-3)GalNAc(b1-3)Gal(a1-4)Gal(b1-4)Glc
# Summary of the method: as §1
# [18] = target: Neu5Ac(a2-3)Gal(b1-3)GalNAc(b1-4)[Neu5Ac(a2-3)]Gal(b1-4)Glc
# Summary of the method: as §1
# [19] = target: Neu5Ac(a2-3)Gal(b1-3)GalNAc(b1-4)[Neu5Ac(a2-8)Neu5Ac(a2-3)]Gal(b1-4)Glc
# Summary of the method: as §1
# [20] = target: Neu5Ac(a2-3)Gal(b1-3)GalNAc6S
# Summary of the method: as §1
# [21] = target: Neu5Ac(a2-3)Gal(b1-3)GlcNAc
# Summary of the method: as §1
# [22] = target: Neu5Ac(a2-3)Gal(b1-3)GlcNAc(b1-2)Man(a1-3)[Neu5Ac(a2-3)Gal(b1-3)GlcNAc(b1-2)Man(a1-6)]Man(b1-4)GlcNAc(b1-4)GlcNAc
# Summary of the method: as §1
# [23] = target: Neu5Ac(a2-3)Gal(b1-3)GlcNAc(b1-3)Gal(b1-3)GlcNAc
# Summary of the method: as §1
# [24] = target: Neu5Ac(a2-3)Gal(b1-3)GlcNAc(b1-3)Gal(b1-4)GlcNAc
# Summary of the method: as §1
# [25] = target: Neu5Ac(a2-3)Gal(b1-3)GlcNAc(b1-3)GalNAc
# Summary of the method: as §1
# [26] = target: Neu5Ac(a2-3)Gal(b1-3)GlcNAc6S
# Summary of the method: as §1
# [27] = target: Neu5Ac(a2-3)Gal(b1-3)[Fuc(a1-4)]GlcNAc
# Summary of the method: as §1
# [28] = target: Neu5Ac(a2-3)Gal(b1-3)[Fuc(a1-4)]GlcNAc(b1-3)Gal(b1-3)[Fuc(a1-4)]GlcNAc
# Summary of the method: as §1
# [29] = target: Neu5Ac(a2-3)Gal(b1-3)[Fuc(a1-4)]GlcNAc(b1-3)Gal(b1-4)[Fuc(a1-3)]GlcNAc
# Summary of the method: as §1
# [30] = target: Neu5Ac(a2-3)Gal(b1-3)[Neu5Ac(a2-3)Gal(b1-4)]GlcNAc
# Summary of the method: as §1
# [31] = target: Neu5Ac(a2-3)Gal(b1-3)[Neu5Ac(a2-6)]GalNAc
# Summary of the method: as §1
# Neu5Ac(a2-3)Gal(b1-4)Glc = target: Neu5Ac(a2-3)Gal(b1-4)Glc
# Summary of the method: as §1
# [32] = target: Neu5Ac(a2-3)Gal(b1-4)GlcNAc
# Summary of the method: as §1
# [33] = target: Neu5Ac(a2-3)Gal(b1-4)GlcNAc(b1-2)Man(a1-3)[GlcNAc(b1-2)Man(b1-4)GlcNAc(b1-2)Man(a1-6)]Man(b1-4)GlcNAc(b1-4)GlcNAc
# Summary of the method: as §1
# [34] = target: Neu5Ac(a2-3)Gal(b1-4)GlcNAc(b1-2)Man(a1-3)[Neu5Ac(a2-6)Gal(b1-4)GlcNAc(b1-2)Man(a1-6)]Man(b1-4)GlcNAc(b1-4)GlcNAc
# Summary of the method: as §1
# [35] = target: Neu5Ac(a2-3)Gal(b1-4)GlcNAc(b1-3)Gal
# Summary of the method: as §1
# [36] = target: Neu5Ac(a2-3)Gal(b1-4)GlcNAc(b1-3)Gal(b1-3)GlcNAc
# Summary of the method: as §1
# [37] = target: Neu5Ac(a2-3)Gal(b1-4)GlcNAc(b1-3)Gal(b1-4)GlcNAc
# Summary of the method: as §1
# [38] = target: Neu5Ac(a2-3)Gal(b1-4)GlcNAc(b1-3)Gal(b1-4)GlcNAc(b1-3)Gal(b1-4)GlcNAc
# Summary of the method: as §1
# [39] = target: Neu5Ac(a2-3)Gal(b1-4)GlcNAc(b1-3)Gal(b1-4)[Fuc(a1-3)]GlcNAc
# Summary of the method: as §1
# [40] = target: Neu5Ac(a2-3)Gal(b1-4)GlcNAc(b1-3)GalNAc
# Summary of the method: as §1
# [41] = target: Neu5Ac(a2-3)Gal(b1-4)GlcNAc(b1-6)[Gal(b1-3)]GalNAc
# Summary of the method: as §1
# [42] = target: Neu5Ac(a2-3)Gal(b1-4)GlcNAc(b1-6)[Neu5Ac(a2-3)Gal(b1-3)]GalNAc
# Summary of the method: as §1
# [43] = target: Neu5Ac(a2-3)Gal(b1-4)GlcNAc6S
# Summary of the method: as §1
# [44] = target: Neu5Ac(a2-3)Gal(b1-4)[Fuc(a1-3)]GlcNAc
# Summary of the method: as §1
# [45] = target: Neu5Ac(a2-3)Gal(b1-4)[Fuc(a1-3)]GlcNAc(b1-3)Gal
# Summary of the method: as §1
binder,measurement,setting,value
"Tap1 (Sordaria macrospora), Q50IV4 (protein) MSHHHHHHHHYTLHLRLINDTSDTLTLVEQTSWWGKNTIWSQVRSTGVHVLSMAASGSSGMLRFQTSKGDFFAVAVGVHNYKRWCDVLVDTADEAPLTKLHPKYYDDKDAKYQALWAQASEFEAKSKSGKTVRIKFYQADGNVLRATVEYL",glycan array binding signal (z-score),[1],-0.251
same,glycan array binding signal (z-score),GlcNAc(b1-6)GalNAc,0.273
same,glycan array binding signal (z-score),GlcNAc3Prop(b1-4)GlcNAc,-0.239
same,glycan array binding signal (z-score),[2],-0.007
same,glycan array binding signal (z-score),Kdn(a2-3)Gal(b1-3)GalNAc,3.63
same,glycan array binding signal (z-score),Kdn(a2-3)Gal(b1-3)GlcNAc,-0.055
same,glycan array binding signal (z-score),Kdn(a2-3)Gal(b1-4)Glc,-0.222
same,glycan array binding signal (z-score),Kdn(a2-3)Gal(b1-4)GlcNAc,-0.238
same,glycan array binding signal (z-score),[3],-0.075
same,glycan array binding signal (z-score),Kdn(a2-6)Gal(b1-4)GlcNAc,-0.233
same,glycan array binding signal (z-score),[4],-0.235
same,glycan array binding signal (z-score),[5],-0.256
same,glycan array binding signal (z-score),Man(a1-2)Man(a1-3)Man,-0.21
same,glycan array binding signal (z-score),[6],-0.218
same,glycan array binding signal (z-score),[7],-0.249
same,glycan array binding signal (z-score),[8],-0.228
same,glycan array binding signal (z-score),[9],-0.226
same,glycan array binding signal (z-score),[10],-0.238
same,glycan array binding signal (z-score),[11],-0.234
same,glycan array binding signal (z-score),Man(a1-3)[Man(a1-6)]Man,-0.242
same,glycan array binding signal (z-score),[12],-0.252
same,glycan array binding signal (z-score),[13],-0.241
same,glycan array binding signal (z-score),[14],-0.246
same,glycan array binding signal (z-score),[15],-0.236
same,glycan array binding signal (z-score),Man(a1-6)Man,-0.182
same,glycan array binding signal (z-score),Man(b1-4)GlcNAc,-0.219
same,glycan array binding signal (z-score),Neu5Ac(a2-3)Gal,-0.232
same,glycan array binding signal (z-score),[16],4.27
same,glycan array binding signal (z-score),[17],-0.222
same,glycan array binding signal (z-score),[18],-0.255
same,glycan array binding signal (z-score),[19],-0.198
same,glycan array binding signal (z-score),[20],1.7
same,glycan array binding signal (z-score),[21],-0.244
same,glycan array binding signal (z-score),[22],-0.232
same,glycan array binding signal (z-score),[23],-0.244
same,glycan array binding signal (z-score),[24],-0.236
same,glycan array binding signal (z-score),[25],1.46
same,glycan array binding signal (z-score),[26],-0.247
same,glycan array binding signal (z-score),[27],-0.247
same,glycan array binding signal (z-score),[28],-0.125
same,glycan array binding signal (z-score),[29],-0.171
same,glycan array binding signal (z-score),[30],-0.249
same,glycan array binding signal (z-score),[31],2.13
same,glycan array binding signal (z-score),Neu5Ac(a2-3)Gal(b1-4)Glc,-0.239
same,glycan array binding signal (z-score),[32],-0.251
same,glycan array binding signal (z-score),[33],-0.246
same,glycan array binding signal (z-score),[34],-0.225
same,glycan array binding signal (z-score),[35],-0.249
same,glycan array binding signal (z-score),[36],-0.239
same,glycan array binding signal (z-score),[37],-0.244
same,glycan array binding signal (z-score),[38],-0.247
same,glycan array binding signal (z-score),[39],-0.235
same,glycan array binding signal (z-score),[40],-0.19
same,glycan array binding signal (z-score),[41],2.22
same,glycan array binding signal (z-score),[42],1.16
same,glycan array binding signal (z-score),[43],-0.248
same,glycan array binding signal (z-score),[44],-0.226
same,glycan array binding signal (z-score),[45],-0.248
